{
  "source": "patent US12433952B2",
  "about": "“Antibody-drug conjugates targeting folate receptor alpha and methods of use” (ZYMEWORKS BC INC., priority 2022, dated 2025)",
  "molecules": {"B1": {"name": "v30384-MT-GGFG-Compound 140 (conjugate)", "heavy 1": "EVQLLESGGGLVQPGGSLRLSCAVSGFSLSSYGVSWVRQAPGKGLEWIGAVNSGGSAYYADSVKGRSTISRDNSKNTVYLQMNSLRAEDTAVYYCARSGSGYPMDYLAIWGQGTLVTVSSASTKGPSVFPLAPSSKSTSGGTAALGCLVKDYFPEPVTVSWNSGALTSGVHTFPAVLQSSGLYSLSSVVTVPSSSLGTQTYICNVNHKPSNTKVDKKVEPKSCDKTHTCPPCPAPELLGGPSVFLFPPKPKDTLMISRTPEVTCVVVDVSHEDPEVKFNWYVDGVEVHNAKTKPREEQYNSTYRVVSVLTVLHQDWLNGKEYKCKVSNKALPAPIEKTISKAKGQPREPQVYVYPPSRDELTKNQVSLTCLVKGFYPSDIAVEWESNGQPENNYKTTPPVLDSDGSFALVSKLTVDKSRWQQGNVFSCSVMHEALHNHYTQKSLSLSPG", "heavy 2": "EVQLLESGGGLVQPGGSLRLSCAVSGFSLSSYGVSWVRQAPGKGLEWIGAVNSGGSAYYADSVKGRSTISRDNSKNTVYLQMNSLRAEDTAVYYCARSGSGYPMDYLAIWGQGTLVTVSSASTKGPSVFPLAPSSKSTSGGTAALGCLVKDYFPEPVTVSWNSGALTSGVHTFPAVLQSSGLYSLSSVVTVPSSSLGTQTYICNVNHKPSNTKVDKKV[human IgG1 Fc with changes not written out]", "light": "DYQMTQSPSSVSASVGDRVTITCRASQSIGDWLAWYQQKPGKAPKLLIYEASTLASGVPSRFSGSGSGTDFTLTISSVQPEDAATYYCQQGYGRSNVDNIFGGGTKVEVKRTVAAPSVFIFPPSDEQLKSGTASVVCLLNNFYPREAKVQWKVDNALQSGNSQESVTEQDSKDSTYSLSSTLTLSKADYEKHKVYACEVTHQGLSSPVTKSFNRGEC"}},
  "key": {"[1]": {"test_system": "MDA-MB-468 (breast adenocarcinoma; FRα-negative)", "experiment": "In vitro cytotoxicity of ADCs, 2D monolayer (CellTiter-Glo)", "assay_type": "cell-based", "settings": "4 days, DAR 8, FRα-negative", "protocol": "The cell growth inhibition (cytotoxicity) capabilities of the humanized variant v30384 conjugated to various drug-linkers were assessed in a panel of FRα-expressing cell lines as described below. Cell lines used were KB—HeLa (endocervical carcinoma), JEG-3 (choriocarcinoma), T-47D (breast carcinoma) and MDA-MB-468 (breast adenocarcinoma; FRα-negative).\nBriefly, cells were seeded in 384-well plates and treated with a titration of test article, generated in cell growth medium. Cells were incubated for 4 days under standard culturing conditions. After incubation, CellTiter-Glo® reagent (Promega Corporation, Madison, WI) was spiked in all wells and luminescence corresponding to ATP present in each well was measured using a Synergy™ H1 plate reader (BioTek Instruments, Winooski, VT). Based on blank wells (no test article added), % cytotoxicity values were calculated and plotted against test article concentration using GraphPad Prism 9 software (GraphPad Software, San Diego, CA)."}, "[2]": {"test_system": "OV90 xenograft", "experiment": "In vivo anti-tumor activity, OV90 model study #2", "set-up": "species or system mouse", "settings": "OV90 study #2, 3 mg/kg single IV dose, DAR 8", "protocol": "(§1) The in vivo anti-tumor activities of humanized variant v30384 conjugated to various drug-linkers were assessed in a numberofxenograft models as describedbelow.\n(§2) All ADCs were DAR 8. For each xenograft study, tumor volume and body weight of the animals were measured twice weekly.\nFor the OV90 model studies #1 and #2, tumor cell suspensions (1×10^7 cells in 0.1 ml 50% Matrigel®) were implanted subcutaneously into female CB. 17 SCID mice. When mean tumor volume reached 100-150 mm^3, the animals were randomly assigned to groups (n=6 per group for study #1, and n=8 per group for study #2) and treated on study day 1 with a single IV dose of test article as shown in Table 28.1. Serum was collected at a number of timepoints for PK analysis."}, "[3]": {"test_system": "NCI-H2110 CDX xenograft", "experiment": "In vivo anti-tumor activity, NCI-H2110 CDX model", "set-up": "species or system mouse", "settings": "6 mg/kg single IV dose, DAR 8", "protocol": "as §1, §2\nFor the NCI-H21 10 CDX model study, tumor cell suspensions (1×10^7 cells in 0.1 ml 50% Matrigel®) were implanted subcutaneously into CB. 17 SCID mice. When mean tumor volume reached ˜140 mm^3 the animals were randomly assigned to groups (n=6 per group) and treated with a single IV dose of test article on study day 0 as shown in Table 28.1."}, "[4]": {"experiment": "Pharmacokinetics of ADCs in OV90 tumor-bearing mice (total IgG ELISA)", "assay_type": "in vivo, mouse", "settings": "OV90 #2 model, 3 mg/kg single IV dose, total IgG in serum", "protocol": "(§3) Serum was collected from the xenograft studies described in Example 28, as noted, and analyzed for the pharmacokinetics (PK) of the ADCs as described below.\n(§4) Absorbance at 450 nm was measured using a Synergy™ H1 Hybrid Multi-Mode Plate Reader (BioTek Instruments, Winooski, VT). Pharmacokinetics parameters were calculated from non-compartmental analysis using Phoenix WinNonlin™ software (Certara, Princeton, NJ)."}, "[5]": {"experiment": "Pharmacokinetics of ADCs in NCI-H2110 tumor-bearing mice (total IgG ELISA)", "assay_type": "in vivo, mouse", "settings": "NCI-H2110 model, 6 mg/kg single IV dose, total IgG in serum", "protocol": "as §3, §4"}, "[6]": {"experiment": "Murine tolerability study (Balb/c)", "assay_type": "in vivo, mouse", "protocol": "ADCs comprising humanized variant v30384 conjugated to various drug-linkers as shown in Table 30.1 were assessed for tolerability in mice at single doses of 60 and 200 mg/kg as described below.\nTest articles were administered to mice (Balb/c, female, 6-8 weeks old, -20g) via 20 ml/kg intraperitoneal injections at 60 and 200 mg/kg. From each dose group, 3 mice were subject to planned observation for 3 weeks post-dose. An additional 3 mice were subject to planned observation for 1 week post-dose, followed by termination and examination of formalin-fixed, paraffin-embedded organs. Mice were euthanized if body weight fell by ≥20% from pre-dose levels. Serum collection was planned for all mice at 24 hr and 7 day post-dose for pharmacokinetic analysis."}, "[7]": {"test_system": "FRα-negative MDA-MB-468 cells co-cultured with FRα-positive JEG-3", "experiment": "Bystander activity of ADCs (mono-culture vs co-culture, flow cytometry)", "assay_type": "cell-based", "settings": "mono-culture viability compared with co-culture viability, 2 nM ADC, 4 days", "protocol": "The ability of the humanized variant v30384 conjugated to various drug-linkers to exert a bystander killing effect on cancer cells was assessed according to the method described below. Bystander killing most commonly occurs after target-specific uptake of an ADC into an antigen-positive cell. Trafficking and degradation of the ADC results in release of active catabolite free drug, which then crosses the cell membrane of nearby cells to elicit cell death.\nFRα-positive JEG-3 and FRα-negative MDA-MB-468 cells were seeded either as mono-cultures or co-cultures in a 48-well plate at 20,000 cells and 10,000 cells, respectively, in 100 μL assay media (Minimum Essential Media supplemented with 10% Fetal Bovine Serum (both from Thermo Fisher Scientific, Waltham, MA)). ADCs were diluted to 4 nM in assay media and 100 μL was added to the cell-containing plates (2 nM final ADC concentration). Cells were incubated with ADCs for 4 days under standard culturing conditions (37° C./5% C02). Following incubation, cells were dissociated, washed, and stained using a viability dye, YO—PRO®-1 (ThermoFisher Scientific, Waltham, MA), and an anti-FRα antibody, mirvetuximab (v17716), conjugated to Alexa Fluor®647, for 20 minutes at 4° C. After incubation, cells were washed in FACS buffer (phosphate buffered saline pH 7.4 (ThermoFisher Scientific, Waltham, MA) supplemented with 2% FBS), resuspended in 70 μL FACS buffer per well, and 35 μL per well were analyzed on a BD LSRFortessa™ Cell Analyzer (BD Biosciences, Franklin Lake, NJ). Dead cells were excluded by gating on YO—PRO®-1 staining. The number of JEG-3 and MDA-MB-468 cells were determined by the number of events in the Alexa Fluor®647 positive (FRα-positive) and Alexa Fluor®647 negative (FRα-negative) gates, respectively. Percent viability was calculated as the number of cells in treatment condition divided by the number of cells in the no-treatment condition."}},
  "data": [
    {"molecule": "B1", "values": [
      {"measurement": "EC50", "setting": "[1]", "result": 23.3, "unit": "nM"},
      {"measurement": "effect on tumor growth", "setting": "[2]", "result": "tumor regressions"},
      {"measurement": "effect on tumor growth", "setting": "[3]", "result": "stasis of tumor growth for approximately 2 weeks post-dose"},
      {"measurement": "Half-life", "setting": "[4]", "result": 141, "unit": "h"},
      {"measurement": "Half-life", "setting": "[5]", "result": 115, "unit": "h"},
      {"measurement": "treatment related microscopic findings", "setting": "[6]; 60 and 200 mg/kg", "result": "present in intestine, bone marrow, thymus, spleen and mesenteric lymph node"},
      {"measurement": "treatment-related macroscopic changes", "setting": "[6]; 60 or 200 mg/kg", "result": "Macroscopic changes considered related to the ADCs were present in preterminal animals"},
      {"measurement": "tolerability (body weight, mortality)", "setting": "[6]; single intraperitoneal doses of 60 and 200 mg/kg, Balb/c mice", "result": "rapid body weight loss, mortality or sacrifice due to moribund condition between 3-6 days post dose"},
      {"measurement": "% Bystander Activity", "setting": "[7]", "result": 51.8, "unit": "%"}
    ]}
  ]
}
